# Results published in PubChem BioAssay AID1656 (Sanford-Burnham Center for Chemical Genomics, 2009).
# This is one part of the list. The main result of the screen is listed elsewhere. These columns were measured beside it and carry no call. Compounds called inactive in the main read-out are mostly missing here.
# Test: oleate-induced lipid droplet accumulation in AML12 cells – imaging, high-throughput imaging, BODIPY stain, primary screen (AID 1656);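 further: cells counted across two imaged fields per well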
# Details: AML12 mouse hepatocytes, oleate lipid droplets, measured here: cell count, cytotoxicity flag, at 6.5 µM
# Summary of the method: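 Material – AML12 mouse liver cells · Also added – oleate loading, 100 µM · Compound dosing – 6.5 µM single-point dosing · Times – overnight treatment with compound plus oleate · Measured by – fluorescence imaging, 20x objective, two fields per well · Read-out – percent inhibition of filter-corrected integrated lipid droplet intensity per well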
row,SMILES,cell count [cells]
1,CC1(C)CCCN(C(=O)c2ccc3c(c2NCCO)C(=O)c2ccccc2C3=O)C1,817
2,CCC(C)NCCOc1ccc(C(C)(C)c2ccccc2)cc1 (configuration not stated),694
3,CCCOc1ccc(CNC(=O)c2ccc3nc(N4CCOCC4)sc3c2)cc1,744
4,C/C=C/c1ccccc1OCc1ccc(C(=O)O)o1,213
5,Cc1cc(C)n(-c2nc3c(c(=O)[nH]c(=O)n3C)n2CC(O)COc2ccc(Cl)cc2Cl)n1 (configuration not stated),833
6,COc1ccc2c(c1)O[C@@H](c1cccc(C(F)(F)F)c1)[C@H](OC(=O)NCCc1ccc(OC)c(OC)c1)C2=O,705
7,c1ccc2c(c1)CCCC2C1=NCCN1 (configuration not stated),680
8,Cc1nc(NC(=O)C2CC2)sc1C(=O)N(C)C,804
9,CCOc1ccc(C(C)NC(=O)Cc2ccccc2F)cc1OCC (configuration not stated),695
10,COc1ccc(C(C)=O)cc1CSc1nnc(Nc2ccc(C)cc2C)s1,382
11,CCOc1ccc2c(c1)-c1c(ssc1=S)C(C)(C)N2C(=O)CSC1=NCCS1,606
12,COc1cccc(-n2nc(C#N)c(Cl)cc2=O)c1,166
13,CCCNS(=O)(=O)c1ccc(CCC(=O)Nc2cc(Cl)ccc2Oc2ccccc2)cc1,684
14,CC1=CC(C)(C)N2C(=O)C3(NCCc4c3[nH]c3ccccc43)c3cccc1c32 (configuration not stated),702
15,Cc1nn(-c2ccc([N+](=O)[O-])cc2)c2c1C(c1cccc(Br)c1)N1C(=N2)C(=O)Nc2ccccc21 (configuration not stated),612
16,Cc1ccc(S(=O)(=O)N(C)C)cc1NC(=S)Nc1ccc2cn[nH]c2c1,650
17,COc1nccnc1NS(=O)(=O)c1ccc(NCc2cc(Br)ccc2O)cc1,843
18,N#C/C(=C\c1ccc(-c2ccccc2[N+](=O)[O-])o1)C(=O)Nc1nc(-c2cccs2)cs1,686
19,COc1ccccc1N=Nc1c(C)[nH]n(-c2ccccc2)c1=O,806
20,CCOc1ccc(NC(=O)CN(C)C(=O)c2ccc(C)c(S(=O)(=O)N3CCCCC3)c2)cc1OCC,694
21,COc1cc(OC)cc(C(=O)N[C@H](C(=O)Nc2nc3ccccc3[nH]2)C(C)C)c1,263
22,CCCCN1C(=O)/C(=C/C=C2\Oc3ccccc3N2CC)SC1=S,628
23,COc1ccc(CCNc2nnc(Sc3nnnn3-c3ccccc3)s2)cc1OC,57
24,COc1ccc(C2CC(c3cccs3)=NN2C(=O)CSc2nc3ccccc3s2)cc1 (configuration not stated),614
25,Cc1cc(C)c(S(=O)(=O)N2CCOC2CNC(=O)C(=O)NCCc2c[nH]c3ccccc23)c(C)c1 (configuration not stated),699

row,SMILES,cell count [cells]
1,O=C(Nc1ccccc1)c1ccc(NCC2CCCO2)c(S(=O)(=O)N2CCOCC2)c1 (configuration not stated),780
2,COc1ccc(NC(=O)C(C)Sc2nnc3c4c(nc(-c5ccc(OC)cc5)n23)CC(C)(C)OC4)cc1 (configuration not stated),675
3,O=C(N/N=C/c1ccccc1Cl)c1[nH]c2ccc(Br)cc2c1-c1ccccc1,62
4,Cc1c(C(=O)OCCOC(C)C)[nH]c2c1C(=O)CC(c1ccco1)C2 (configuration not stated),146
5,CCOc1cc2c(cc1OCC)C(c1ccc(OC)cc1)N(c1ccccc1)C(=O)C2 (configuration not stated),594
6,COc1cccc2sc(Nc3nc(-c4cc5ccccc5oc4=O)cs3)nc12,175
7,O=C(CSc1nc2ccccc2o1)Nc1nc(-c2ccccc2)c(-c2ccccc2)s1,564
8,CCOc1ccc(CCNC(=O)CSc2nn(-c3ccc(C)c(Cl)c3)c(=S)s2)cc1OCC,688
9,CCN(CC)S(=O)(=O)c1ccc(N2C(=O)CC2(/C=C/c2ccccc2)C(=O)NC2CCCC2)cc1 (configuration not stated),610
10,Cc1c(O)ccc(/C=N/Nc2nc(-c3cccnc3)nc3ccccc23)c1O,653
11,COc1ccc(NC(=O)CSc2nc3ccccc3nc2N2CCCC2)cc1,739
12,CCOc1ccccc1NC(=O)CSc1nnc(Cn2c(=O)sc3ccccc32)n1C,758
13,CCCCCC(/C=N/Nc1ccc(S(=O)(=O)N2CCOCC2)cc1[N+](=O)[O-])=C\c1ccccc1,724
14,CC1=C(C(=O)NC2CCCc3c2cnn3-c2cccc(C)c2C)OCCO1 (configuration not stated),631
15,COc1ccc(CCNC(=O)c2cc3c(=O)n4ccccc4nc3n(CCCN3CCOCC3)c2=N)cc1OC,212
16,O=C1C(NS(=O)(=O)c2ccccc2)=C(N2CCN(c3ccc(F)cc3)CC2)C(=O)c2ccccc21,682
17,CC(C)(C)c1cc(NC(=O)Nc2ccc(Cl)cc2Cl)no1,772
18,CCCc1nc2oc3c(NCCCN(C)C)ncnc3c2c2c1CCCC2,57
19,Cc1[nH]n(-c2ccccc2)c(=O)c1N=Nc1ccccc1,660
20,Cc1cc(C)nc(NCCO)n1,710
21,COC(=O)c1ccc(C)c(NS(=O)(=O)c2ccc(OC)cc2)c1,239
22,CC1CCCN(C(=O)c2ccc3c(c2NCCO)C(=O)c2ccccc2C3=O)C1 (configuration not stated),762
23,CN(C)c1ccc(NC2=C([N+](=O)[O-])CS(=O)(=O)C2)cc1,825
24,COc1ccc(CCNC(=O)[C@H](C)N2C(=O)N3CCc4c([nH]c5ccccc45)[C@@]3(C)C2=O)cc1OC,822
25,CCOc1ccc(CCNC(=O)CN2C(=O)NC(CCSC)C2=O)cc1OCC (configuration not stated),670

row,SMILES,cell count [cells]
1,COc1ccc(NS(=O)(=O)c2ccc(NC(=S)NCC3CCCO3)cc2)cc1 (configuration not stated),695
2,CC1Cc2cc(S(=O)(=O)NCCC(=O)N(C)Cc3ccccc3)ccc2N1C(=O)C1CC1 (configuration not stated),740
3,CN(C)c1ccc(C(=O)c2ccc(N(C)C)c3ccccc23)cc1,41
4,COc1ccc(-c2cc(C(F)(F)F)nc(SCCC(=O)NCc3ccccc3)n2)cc1,753
5,C/C(=N\Nc1ccc(S(=O)(=O)Nc2ccc(Cl)cc2)cc1[N+](=O)[O-])c1ccc(N2CCOCC2)cc1,585
6,CC(=O)OCC(=O)[C@@]1(O)CC[C@H]2[C@@H]3CCC4=CC(=O)CC[C@]4(C)[C@H]3[C@@H](O)C[C@@]21C,746
7,O=C(N/N=C/c1cccs1)c1cc(-c2ccncc2)nc2ccccc12,169
8,CCOc1ccc2c(c1)-c1c(ssc1=S)C(C)(C)N2C,758
9,Oc1c(N=Nc2ccc(F)cc2)ccc2ccccc12,794
10,O=C1OCC2=C1C(c1ccc(F)cc1)c1cc3c(cc1N2)OCO3 (configuration not stated),112
11,COc1ccc(CC(=O)OCC(=O)N2N=C(c3ccccc3)CC2c2ccc(OC)cc2)cc1 (configuration not stated),719
12,CC(=O)Nc1ccc(/C(C)=N/Nc2nc(Nc3ccccc3)nc(N3CCOCC3)n2)cc1,8
13,CCOc1ccc(C(=O)NCC(=O)NC(C)CCc2ccccc2)cc1OCC (configuration not stated),726
14,COc1ccc(OC)c(/C=C/C(=O)N(C)CC(=O)Nc2ccc(C)cc2)c1,643
15,COc1cc2ncnc(NCc3ccc(Cl)cc3)c2cc1OC,488
16,COC(=O)c1ccc(C2=NOC(C)(c3sc(-c4ccc(Cl)cc4)nc3C)C2)cc1 (configuration not stated),587
17,Cc1cccc(NC2=C(NCCO)C(=O)c3ccccc3C2=O)c1,713
18,COc1ncccc1C(=O)NC1CCCc2c1cnn2-c1ccc(C)c(C)c1 (configuration not stated),642
19,CCOC(=O)c1cc(-c2ccc(C)cc2)nc2nc(SC)[nH]c(=O)c12,640
20,CCOc1ccc(CCNC(=O)C2CCN(S(=O)(=O)N3CC(C)CC(C)C3)CC2)cc1OCC (configuration not stated),824
21,CCN(CC)S(=O)(=O)c1ccc(C(=O)NCc2ccc3[nH]c4c(c3c2)CCCC4)cc1,711
22,Cc1cc(C(=O)OC(C)C(=O)Nc2nc(-c3ccccc3)cs2)c(C)o1 (configuration not stated),787
23,COc1ccc(N=C2C(=Nc3ccc(OC)cc3)N(c3ccc(OC)cc3)C(=S)N2C(=O)c2ccc(OC)cc2)cc1,736
24,O=C(CCNC(=O)C1CCN(S(=O)(=O)c2ccccc2)CC1)NCc1ccc(Cl)cc1Cl,704
25,Cc1noc(NS(=O)(=O)c2ccc(NC(=O)CC(C)C)cc2)c1C,250

row,SMILES,cell count [cells]
1,CC(C)c1ccc(NC(=O)CSc2nc3ccccc3nc2N2CCCC2)cc1,756
2,Cc1ccc(S(=O)(=O)NNC(=O)C2COc3ccccc3O2)cc1 (configuration not stated),287
3,O=C(Nc1ccc(NS(=O)(=O)c2ccccc2)cc1)c1ccccc1,17
4,CN1/C(=C\C=C(/C#N)C(=O)Nc2ccccc2F)C(C)(C)c2ccccc21,195
5,O=C1C=C(Nc2cccc3cccnc23)c2ccccc2C1=O,299
6,Cc1ccc(NC(=O)/C=C/c2ccc([N+](=O)[O-])s2)c(C)c1,127
7,CCOc1ccc(CCNC(=O)Cn2ccc3ccccc3c2=O)cc1OCC,684
8,O=C(Cn1nnc(-c2ccc([N+](=O)[O-])cc2)n1)NNC(=O)c1ccccc1,763
9,CCOc1ccc(C(=O)NCCNC(=O)c2ccc(OCC)cc2)cc1,849
10,N#C/C(=C\c1sc(N2CCOCC2)nc1-c1ccccc1)C(=O)Nc1cccc2ccccc12,696
11,C=C(C)Cn1c(N2CCC(Cc3ccccc3)CC2)nc2c1c(=O)[nH]c(=O)n2C,655
12,Cc1cc(C)cc(N(CC(=O)O)S(=O)(=O)c2c(C)noc2C)c1,836
13,O=C(Nc1ccccc1F)C(=Cc1sc(N2CCOCC2)nc1-c1ccccc1)C(=O)Nc1ccccc1F,624
14,COc1ccc2c(c1)c(CC(=O)Nc1cc(C)ccc1C)c(C)n2C(=O)c1ccc(Cl)cc1,647
15,CCCc1cc(N2CCCC2)n2nc(C)c(-c3ccccc3)c2n1,666
16,CCOC(=O)C(NC(=O)c1cccc(Cl)c1)(OCc1ccc(F)cc1)C(F)(F)F (configuration not stated),661
17,CC(Sc1nc(NCc2ccccc2)nc(N2CCOCC2)n1)C(=O)Nc1ccccc1 (configuration not stated),762
18,CCOc1ccc(C(=O)OCC(=O)Nc2nc(OC)cc(OC)n2)cc1OCC,676
19,N#CC(C#N)=c1ccc2c(c1)N1C(c3ccccc3)=CC(c3ccccc3)C3CCCCC31N=2 (configuration not stated),643
20,CCOCCCNc1nc2c(C)cccn2c(=O)c1/C=C1\SC(=S)N(C(C)CC)C1=O (configuration not stated),703
21,CC1=Nc2ccccc2/C1=C\c1sc(Nc2ccc(C)cc2)nc1O,162
22,COc1ccc(S(=O)(=O)N2c3cc(Cl)ccc3Oc3nc4ccccc4nc32)cc1,128
